Reference: PubChem BioAssay AID2551 (National Center for Advancing Translational Sciences (NCATS), 2010)
The campaign covered roughly 310,000 compounds. About 17,000 (5.5%) were called active. Not shown: some 11% with an inconclusive outcome. The call rests on the fitted dose curve; in most records, active means well fitted inhibition curve with a large enough effect; inconclusive means small, poorly fitted or top-dose-only effect, or effect the other way; inactive means no such curve, though single readings can be large or run the other way. The entries are a selection whose mix differs from that of the whole data set.

target: Nuclear receptor ROR-gamma (Mus musculus) (UniProt P51450); experiment: qHTS for inhibitors of ROR gamma transcriptional activity; conditions: Drosophila S2 Gal4-RORgamma UAS-luciferase reporter, 20 h; series mostly up to 53.6 µM; activity change, negative = inhibition: at the top concentration; further: nearly all actives have a fitted effect of over 60% in size
Description: NIH Molecular Libraries Probe Production Network [MLPCN] NIH Chemical Genomics Center [NCGC] MLPCN Grant: R03 DA026211-01 Assay Provider: Dan Littman, New York University Assay Overview: The retinoic acid-related orphan receptor (ROR) gamma is a transcription factor that has a central role in the differentiation of Th17 cells, a subset of T helper cells that secrete the inflammatory cytokines IL-17, IL-17F, and IL-22. Th17 cells have been implicated in graft versus host disease, autoimmune disease and asthma. ROR gamma is induced in naive T helper cells in the presence of TGF-beta combined with IL-6, IL-21, or IL-23, and thereafter directs the expression of the Th17 lineage cytokines. To study the mechanism of action of ROR gamma, an insect cell-based assay was screened. This Drosophila Schneider cell line was stably transfected with two vectors: a gene expressing a fusion of the Gal4 DNA binding domain and ROR gamma transactivation domain under the control of the metallothionine promoter and a Photinus luciferase reporter regulated by the Gal4 binding site enhancer, UAS. […] Small molecule inhibitors of ROR gamma activity are detected by a decrease in luciferase reporter activity.
Assay Protocol Summary: For screening, 600 cells in 4 uL/well were dispensed into white solid 1536-well plates (Grenier) using a solenoid-based dispenser. Following transfer of 23 nL compound or DMSO vehicle by a pin tool, the plates were incubated 1 hr at ambient temperature, and 1 uL/well copper sulfate (700 uM final concentration) was added. The plates were centrifuged 15 s at 1000 RPM and incubated 20 hr at ambient temperature. After addition of 1.5 uL Photinus luciferase detection reagent, the plates were incubated 10 min at ambient temperature and then read by an ViewLux (Perkin Elmer) to detect luminescence. Keywords: NIH Roadmap, MLPCN, MLI, MLSMR, qHTS, NCGC, qHTS, nuclear hormone receptor, retinoic acid-related orphan receptor, ROR gamma
On the % scale 0 is the no-effect control and ±100 the full control effect; potency means the concentration at half of the fitted maximal effect.

Chain of UniProt P51450 (P51450 whole entry, looked up, the tested form may be a part): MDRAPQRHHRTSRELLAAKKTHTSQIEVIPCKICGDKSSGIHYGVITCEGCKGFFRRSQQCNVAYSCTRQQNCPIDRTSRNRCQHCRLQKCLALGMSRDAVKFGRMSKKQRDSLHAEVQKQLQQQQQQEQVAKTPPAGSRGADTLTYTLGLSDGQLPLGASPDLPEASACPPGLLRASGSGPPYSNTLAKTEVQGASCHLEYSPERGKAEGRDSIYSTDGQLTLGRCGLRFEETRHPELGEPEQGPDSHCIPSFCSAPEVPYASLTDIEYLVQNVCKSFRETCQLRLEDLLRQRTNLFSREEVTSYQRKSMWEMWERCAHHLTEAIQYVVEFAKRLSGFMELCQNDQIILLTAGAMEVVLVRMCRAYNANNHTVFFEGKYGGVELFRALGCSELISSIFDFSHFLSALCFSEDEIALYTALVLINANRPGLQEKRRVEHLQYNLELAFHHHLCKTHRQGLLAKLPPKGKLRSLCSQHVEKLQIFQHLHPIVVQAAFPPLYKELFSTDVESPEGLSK

Activity change, negative = inhibition, inactive:
O=C1OCCN1C(=O)[C@H]1[C@H](c2ccc(Cl)cc2)C(c2cccc(Cl)c2)=NN1c1ccccc1 -2.49%
C=C/C1=C/Cc2ccccc2[C@H](C[N+](=O)[O-])C(C(=O)OC)(C(=O)OC)C1 -19.2%
O=C(CSc1nc2ccccc2[nH]1)N/N=C/C=C/c1ccccc1[N+](=O)[O-] 39.6%
CC(C)CC(CSc1ccc(Br)cc1)N1CCN(CC(C)C)CCC1=O (centres undefined) 12.6%
CC#C[C@]1(O)CC[C@H]2[C@@H]3CCC4=CC(=O)CCC4=C3[C@H](c3ccc(N(C)C)cc3)C[C@@]21C 25.4%
COc1ccc(-c2coc3cc(OC)cc(OC)c3c2=O)cc1 25.3%
O=C1C2C3c4ccccc4C(c4ccccc43)C2c2nc3ccccc3n21 (centres undefined) -14.9%
COc1ccc(COc2cc(-c3cccc(OC)c3)nc3ccc(NC(=O)c4ccc(OC)cc4)cc23)cc1 5.45% [at 40.7 µM]
Cc1c(C(=O)O)oc2c1C(O)CC(C)(C)C2 (centres undefined) 0.504%
C[C@@H]1CC[C@@]2(O[C@H](CCO)C[C@@H](O)[C@@H]2O)O1 5.26%
COC(=O)C/C=C\[C@@H](C)[C@@H](/C=N\OC[C@@H]1O[C@H](c2ccccc2)C=C[C@@H]1Oc1ccc(OC)cc1)NS(=O)(=O)c1ccc(C)cc1 -1.86% [at 10 µM]
CCC1=C(OC(=O)N(CC)CC)N2C(=O)OC(=NCC3CC3)[C@]2(Cc2ccccc2)[C@H]2C1=CC[C@H]1C(=O)N(c3ccccc3)C(=O)[C@H]12 37.9%
COc1ccc(C2=C(CN(C)C)C(c3ccccc3)c3ccccc3O2)cc1 (centres undefined) -33.3%
O=S(=O)(c1cccc2nsnc12)N1CCN(C/C=C/c2ccccc2)CC1 2.15%
O=C(C1=C[C@@H](C2CCCCC2)C[C@@H](OCCCCO)O1)N1CCN(Cc2ccc3c(c2)OCO3)CC1 11.8%
COc1ccc(C2=Nn3c(nnc3-c3ccc(OC)cc3)SC2)cc1 -6.07%
CCn1ccnc1CC1COc2ccccc2O1 (centres undefined) -22.7%

Potency, inactive:
CCN(CC)CCNC(=O)c1cc(S(C)(=O)=O)ccc1OC
O=C(CCCN1CC=C(n2c(=O)[nH]c3ccccc32)CC1)c1ccc(F)cc1
COc1ccc2cc(CCC(C)=O)ccc2c1
O=[N+]([O-])c1cccc2cn[nH]c12
CC(C)NCC(O)c1ccc2ccccc2c1 (centres undefined)
COC(=O)[C@H]1C[C@@H]1[C@H](NS(=O)(=O)c1ccc2ccccc2c1)c1ccccc1
CCC1=C(C)CN(C(=O)NCCc2ccc(S(=O)(=O)NC(=O)NC3CCC(C)CC3)cc2)C1=O (centres undefined)

Potency, active:
CCOc1ccc(/C=C/C2=CC(C)(C)NC(=S)N2)cc1 708 nM
CCCSC(=S)c1c(C)[nH]n(-c2ccccc2)c1=O 316 nM
COc1cccc(/C=C2\SC(=S)N(CCCC(=O)N3CCCCC3)C2=O)c1 4470 nM
CCc1ccc(OCC2c3cc(OC)c(OC)cc3CCN2C(=S)NC)cc1 (centres undefined) 11200 nM
Cc1cccc(N=Nc2ccc(O)c3ncccc23)c1 112 nM
